The text below walks through data of ChEMBL document CHEMBL4888484, “Replenishing the malaria drug discovery pipeline: Screening and hit evaluation of the MMV Hit Generation Library 1 (HGL1) against asexual blood stage Plasmodium falciparum ,using a nano luciferase reporter read-out” (2022).

In all, about 150,000 compounds went through this assay and about 540 (0.36%) showed an effect of 50% or more. The list shows a part of the results.

The assay has as its system Plasmodium falciparum. Put plainly: Primary screen in NF54 nanoGlo assay, in single point, at 2uM, 72h; a lower Z score goes with more inhibition. The following applies: timepoint 72 hour. It counts as functional, Erythrocyte.
Take `O=S(=O)(c1ccc2c(c1)CCCC2)N1CCNCC1`: the “% Inhibition” value is recorded as -23% and the Z score is reported as 1.92.
As to `CCc1nccn1Cc1nc(CCOC)no1`, the “% Inhibition” value is given as -18% and the Z score was determined as 1.57.
For `Cc1cc(C)n(CC2(CNC(=O)Nc3ccc4c(c3)COC4=O)CC2)n1` the same measures were -10% and 1.34.
For `Cc1nnc(CNC(=O)[C@]2(C)COc3ccccc3O2)n1C1CC1` the same measures were -4% and 0.75.
For `O=C(CN1CC(=O)NC1=O)NCC1(c2cccc(F)c2)CCCCC1` the same measures were -15% and 1.23.
On to `CCCc1nnc(NCCCN2CCOCC2)o1`, for which the “% Inhibition” value is -3% and the Z score was 0.49.
For `COCCOc1cc(Cn2nc(C)cc2C)ccn1` the same measures were -2% and 0.34.
For `O=C(NC(c1ccccc1)C1CCCO1)c1ccnc(C(=O)O)c1` (configuration not stated) the same measures were -4% and 0.64.
Consider `CCNC(=O)COc1c(F)cccc1OC`, for which the “% Inhibition” value was found to be 7% and the Z score is listed as -0.96.
In the case of `CC(C)c1nnc([C@H](C)NC(=O)c2cc(C3CC3)[nH]n2)o1`, the “% Inhibition” value is given as 11% and the Z score is reported as -1.41.
For the compound `O=C(NC1CCCC1)[C@H]1CCCN(S(=O)(=O)c2ccccc2)CCc2nnc(-c3cccnc3)n2CC1`, the “% Inhibition” value came out at 3% and the Z score is -0.37.
For `COc1ccc(NC(=O)c2ccc(NC(=O)CCc3cccs3)cc2)cc1` the same measures were -16% and 2.19.
With `COc1ccc(CCNC(=O)c2ccc(Cn3c(=O)c4ccccc4n(CC(=O)Nc4cccc(F)c4)c3=O)cc2)cc1OC`, the “% Inhibition” value is reported as -14% and the Z score is 2.06.
The corresponding values for `COc1cccc(N2CC(=O)N=C2Nc2nc(C)cc(C)n2)c1` are 10% and -1.31.
For `CCCc1cc(C(=O)NCc2cc3n(n2)CCCN(CCC)C3)cs1` the same measures were -3% and 0.46.
For `C#CCCC1(CCC(=O)N2CCC[C@H]2c2nncn2C)N=N1` the same measures were -9% and 1.12.
On to `C=CCN=C(NCC=C)NCc1nc([C@H](C)OCC)no1`, for which the “% Inhibition” value came to 5% and the Z score is reported as -0.62.
For `O=C(O)C1CC=CCC1C(=O)N1CCCc2ccccc21` (configuration not stated) the same measures were -10% and 1.24.
`CCc1ccc(CNC(=O)Nc2cccnn2)s1`: the “% Inhibition” value came to 1% and the Z score is -0.24.
The corresponding values for `O=C(Nc1ccccc1F)[C@H]1CCCN(CC(F)F)C1` are -9% and 1.27.
The corresponding values for `C#CCCC1(CCC(=O)N2CCCC[C@H]2c2ccco2)N=N1` are -6% and 0.92.
With `C[C@H](Nc1ncccc1C#N)c1cccc(-n2cccn2)c1`, the “% Inhibition” value was -11% and the Z score is recorded as 1.61.
With `CCOC(=O)c1ccc(Nc2nnc(Cc3csc(N)n3)s2)cc1`, the “% Inhibition” value is -4% and the Z score is on record as 0.52.
The corresponding values for `COCCCN(Cc1csc(COc2cccc(C)c2)n1)C(=O)c1ccco1` are 1% and -0.19.
The corresponding values for `CC(=O)NCCOc1cc(Cl)ccc1Cl` are -14% and 1.95.
For `CC(C)C[C@H](NC(=O)c1ccc(N2CCCCS2(=O)=O)cc1Cl)c1nc2ccccc2n1C` the same measures were 5% and -0.71.
As for `CC(C)CNC(=O)CN[C@@](C)(CO)C1CCCCC1`, the “% Inhibition” value is listed as -14% and the Z score was determined as 1.42.
The corresponding values for `N#Cc1ccnc(C=Cc2cn(-c3ccc(F)cc3Cl)nn2)n1` are -14% and 1.68.
For `CCN(CC)C(=O)[C@H](C)Nc1cnn(C(C)(C)C)c1` the same measures were -7% and 0.75.
The corresponding values for `CCOC(=O)c1sc2nc(-c3ccc(O)cc3)c(NCc3ccc(F)cc3)n2c1C` are -3% and 0.34.
As for `Cc1nc(NC(=O)N[C@H]2CCCNC2=O)sc1C`, the “% Inhibition” value was -3% and the Z score is reported as 0.47.
For `O=C(Nc1nc2cc3c(cc2[nH]1)OCO3)C1C2CCCC21` (configuration not stated) the same measures were 11% and -1.4.
The corresponding values for `CCOC(=O)Nc1ccc(Br)c(C)c1` are -13% and 1.15.
For `CCC(=O)Nc1ccc2c(c1)CN(C(=O)Cc1ccc(C)cc1)[C@H](C(=O)N1CCCC1)C2` the same measures were -6% and 0.9.
In the case of `COCCCN(C)C(=O)N1CCn2c(Cc3cccc(Br)c3)nnc2C1`, the “% Inhibition” value was -1% and the Z score is 0.14.
Regarding `CCC[C@H]1CN(CC(=O)Nc2ccc(C)cn2)C[C@@H]1N(C)C`, the “% Inhibition” value is reported as 0% and the Z score was determined as 0.02.
For `Cc1ccc(NC(=O)N2C[C@H](c3nnc(-c4ccncc4)o3)C3(CCOCC3)C2)cc1C` the same measures were -1% and 0.27.
The corresponding values for `C[C@@H](C(=O)NCC1CCOCC1)n1nc2c(cc1=O)CCC2` are 22% and -2.85.
On to `CCN(C(=O)Cn1c(C)cc(C)c(-c2nc(-c3ccc(Cl)cc3)no2)c1=O)c1cccc(C)c1`, for which the “% Inhibition” value is recorded as -1% and the Z score is on record as 0.05.
The corresponding values for `OC1CN(c2ncnc3scc(-c4ccccc4)c23)C1` are 9% and -1.03.
For `CC(C)c1nnc([C@H]2CN(C(=O)c3ccc(F)cc3F)CC23CCN(C)CC3)o1` the same measures were 2% and -0.34.
The corresponding values for `O=C(Nc1ccc(-c2ccno2)cc1)C1CCN(S(=O)(=O)c2ccc3c(c2)CCCN3C(=O)C2CCC2)CC1` are -29% and 5.6.
As for `Cc1c(-c2cnn(C)c2)nc(N)c(C#N)c1-c1ccc(N(C)C)cc1`, the “% Inhibition” value amounted to 5% and the Z score is on record as -0.93.
For `COc1cc(OC)cc(C(=O)N2CCc3nc(-c4ccccc4)nc(N4CC(C)OC(C)C4)c3C2)c1` (configuration not stated) the same measures were 18% and -1.69.
For `Cc1coc(-c2ccc(C)c(NC(=O)CCN3C(=O)CCC3=O)c2)n1` the same measures were 40% and -5.44.
For `CCN(Cc1cc(Br)ccc1O)C(=O)CCc1c(C)[nH]c(=O)c(C#N)c1C` the same measures were -2% and 0.45.
Take `CCc1nnc(CN2CCN(CC3CC3)c3ccccc32)o1`: the “% Inhibition” value is -7% and the Z score is 0.83.
The corresponding values for `O=S(=O)(C1CN(c2ccc(C(F)(F)F)nn2)C1)N1CCOCC1` are -4% and 0.44.
For `CCc1nccn1CCCNC(=O)c1ncc(F)cc1F` the same measures were -6% and 1.02.
For `O=S(=O)(c1cnc2ccccc2c1)N1CCOC2(CCCCCC2)C1` the same measures were -2% and 0.35.
As for `COc1ccc(Br)cc1CNc1ccc(-c2nc3ccc(C)cc3s2)cc1`, the “% Inhibition” value was found to be 19% and the Z score is -2.47.
Consider `O=C(CCn1cnc2ccccc2c1=O)c1ccc2c(c1)OCCO2`, for which the “% Inhibition” value is recorded as -6% and the Z score is reported as 0.79.
For `CCn1ncnc1CNC(=O)C1C2CCCC21` (configuration not stated) the same measures were 30% and -3.43.
The corresponding values for `CN(CCN(C)S(=O)(=O)N1CCCC1)C1CCCC1` are -4% and 0.68.
The corresponding values for `O=C(c1cnns1)N1CCC(CC(F)(F)F)CC1` are -1% and 0.12.
For `O=C(COc1cccc(Br)c1)N1CCC[C@H](c2nc3ccccc3s2)C1`, the “% Inhibition” value is reported as -1% and the Z score amounted to 0.06.
Take `Cc1ncoc1C(=O)N1CC(=O)N(CC(C)C)C[C@H](OCc2cccnc2)C1`: the “% Inhibition” value amounted to 4% and the Z score was -0.5.
The corresponding values for `CCN1C[C@H](NS(=O)(=O)c2ccccc2F)[C@@H](OC)C1` are -7% and 0.95.
For `CCn1ccc2ccc(CNCC3(COC)CCC3)cc21` the same measures were 11% and -1.58.
Consider `CCCNc1nc(C)c(C(=O)OCC)s1`, for which the “% Inhibition” value is -38% and the Z score was 4.45.
The corresponding values for `Cc1nnc(Cn2nnc(C(=O)N3CCC(Cc4ccccc4)CC3)c2C)o1` are 4% and -0.55.
For `Cc1nc(CN2C(=O)COc3cc(S(=O)(=O)N4CCN(C)CC4)c(Cl)cc32)no1` the same measures were -11% and 1.29.
For `Cc1nnnn1CCC(=O)N(C)Cc1cc2ccccc2s1` the same measures were -10% and 1.17.
For the compound `CC(C)(C(=O)N1CCC[C@H](Cn2cncn2)C1)C1CCOCC1`, the “% Inhibition” value is reported as 6% and the Z score is given as -0.93.
The corresponding values for `CCC1(CC)CCN(C(=O)c2ccc(-n3cnnn3)cc2)CC1` are -16% and 1.96.
Turning to `CN=C(NCc1cnn(C)c1)NC[C@H](C)Oc1ccc(Cl)cc1`, the “% Inhibition” value is reported as -9% and the Z score is 1.4.
As for `Oc1ccc(CN2CCC(OC[C@H]3CCOC3)CC2)cc1`, the “% Inhibition” value is -5% and the Z score is given as 0.66.
The corresponding values for `CC1CCCC(NC(=O)c2cnn(-c3ccc(F)cc3)n2)C1C` (configuration not stated) are -1% and 0.18.
The corresponding values for `Cc1csc(NC(=O)[C@@H](N)CC2CCCCC2)n1` are -5% and 0.51.
For `CCOc1ccc(-c2nc(Cn3ccnn3)co2)cc1` the same measures were -6% and 1.08.
Consider `O=S(=O)(Oc1cccc(F)c1)c1cnccc1C(F)(F)F`, for which the “% Inhibition” value is 1% and the Z score is listed as -0.09.
As for `COc1cccc(OC)c1OCC(O)CNC(c1ccccc1)C1CCCCC1` (configuration not stated), the “% Inhibition” value was -8% and the Z score came out at 1.05.
The corresponding values for `Cc1nn(C)c2nccc(NC[C@H]3CCCO3)c12` are -12% and 2.19.
The corresponding values for `COc1ccccc1CCN1C(=O)[C@H](CC(=O)Nc2cccc3[nH]ccc23)N=C1O` are 7% and -0.73.
For the compound `CC[C@H](C)C(=O)NCC(=O)N1CCCC1`, the “% Inhibition” value is -12% and the Z score is recorded as 1.51.
For `O=C(N[C@H]1[C@H](O)[C@H](O)C[C@@H]1c1ccccc1)c1ccccc1` the same measures were -3% and 0.43.
Turning to `O=C(CCc1ccccc1)C(=O)N1C[C@@H]2CC[C@H]1CN(Cc1ccccn1)C2`, the “% Inhibition” value stood at 3% and the Z score is -0.54.
The corresponding values for `CC/C=C/CC(=O)N1C[C@@H]2C(=O)N(C)C(=O)[C@@H]2C1` are -10% and 1.47.
For the compound `OCCn1nc(Cc2cccs2)nc1CCN1CCCCCCC1`, the “% Inhibition” value was -16% and the Z score was found to be 2.13.
For the compound `CCc1cc(C(=O)N2CCCC[C@@H]2Cc2ccccc2F)n(C)n1`, the “% Inhibition” value is -5% and the Z score came out at 0.49.
For `O=C([C@@H]1CC(c2cc(F)ccc2F)=NO1)N1CCOCC1` the same measures were -10% and 1.55.
The corresponding values for `Cc1cc(NC(=O)NCc2nnc3n2CCOCC3)nn1-c1ccccc1` are 0% and 0.06.
For `CC(C)[C@H]1CC[C@H](C(=O)Nc2ncccn2)CC1` the same measures were -5% and 0.84.
`Cc1cc(F)ccc1NC(=O)CC(F)(F)F`: the “% Inhibition” value is reported as -8% and the Z score is given as 0.99.
The corresponding values for `Cc1cccc(-c2nnc3c4ccc(Cl)cc4nc(N4CCN(C(=O)c5ccccc5)CC4)n23)c1` are -15% and 1.65.
The corresponding values for `Cc1ccc(C)c(-c2n[nH]cc2CN2CCN(C)[C@@H]3CS(=O)(=O)C[C@@H]32)c1` are 3% and -0.45.
